The supplement of paper PMC11417369
Some of the results follow.

test system: PfHDP1 homeodomain (GST-tagged); assay: gcPBM binding intensity (ln(normalized median fluorescence intensity)); higher = stronger DNA binding
Procedure, shortened: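 Each value is the highest Masliner-normalised natural-log median intensity across replicate spots of either orientation of a probe. The probes were primer-extended double-stranded 36-bp intergenic genomic sequences on an Agilent 4 × 180k array, alongside negative controls, exposed for 1 h to GST-tagged P. falciparum DNA-binding domains expressed in E. coli. Bound protein was picked up with Alexa488 anti-GST antibody and scanned at 488 nm.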

Sequence | gcPBM binding intensity (ln)
TGGAGGATAGTTCACAGTACCCAGAAACTCTACGGA [XGTACX_site2560] | 6.14
AACCATAAATAATTATGTACTAAAAAAAATATATAT [XGTACX_site3415] | 6.7
CTGAATGTATATATTTGTACATATATATATATATAT [XGTACX_site5557] | 9.36
TTTTTTTTTTTTAATTAACACACATAAATATATATA [CACACA_site9077] | 6.43
GGGTATAATAAAAGCACACACAAAGATATAAATATA [CACACA_site3308] | 6.78
AAAAAAAAAAAACACGCATGTACATAAAAATAATCA [TGCATGCA_site142] | 6.52
TTAAAATCTTGAAAAGTGCATTATCATTTTGTAACG [GTGCAC_site9447] | 7.99
TATAATGATGATGATAGTACGTATGAGTTCAAAAAA [XGTACX_site3656] | 6.57
TATATATTTATATATGCATGTACATTTTTATTTATT [TGCATGCA_site1048] | 6.65
TTTTTAATATATAAAGATAATAATAAATAAAATTCA [CACACA_negctrl_site657] | 5.97
AAAGAAATGAAATATACACACATACCTATATACATA [CACACA_site7817] | 6.63
ATATAAAACAACGGGTGTACAAAAAAATAAATAATA [XGTACX_site4094] | 6.92
TATAGATACCTATACACACACACACGGACATATATA [CACACA_site7585] | 7.01
TTTTTCTTCTGCATTATGCACACTATAATTCGTTAA [CACACA_site2837] | 10.2
TTTTTATGGACTATGGTGCATTATATATAAATGAAA [GTGCAC_site9557] | 10.3
AGTATACACAGACACACACACACATATATATATATA [CACACA_site8510] | 9.2
TAATATTATATAAATTGTACTATTTTTTCCTTATTC [XGTACX_site5314] | 6.55
GTAAACAATTATGAACGTACATAAAATAAATGAACA [XGTACX_site7159] | 6.86
TGTCTTTTTAAGTTTTGTACATAAATATATTTCAAA [XGTACX_site427] | 6.95
AAAAAAAAAAAAAATACACACACATATATATATATA [CACACA_site8698] | 9.39
ATATAAGTTATTTTATACAAAAAAAAAAAAAAAAAT [CACACA_negctrl_site1190] | 6.27
AAGAATGTTAACGTTGCACACAAAAAAAAAGTATAC [CACACA_site8763] | 8.39

Sequence | gcPBM binding intensity (ln)
CTTTCATATGTTTTAACACACACGCATATATTATAG [CACACA_site7033] | 6.9
TATTTATGCACGCGTGCACACACATATGAAAAAAGG [CACACA_site9090] | 10.9
AATTGCTAATGGTACGAACACACATATAAAGATGCA [CACACA_site8634] | 6.73
TATACATAATATATATGTACATATATTCTTTATTTT [XGTACX_site4565] | 6.55
AAACAATAAAAGATTACACACATATATAGCATATAT [CACACA_site1698] | 6.82
ACCTTATAAAAAAAAAGTACATATATAAATAATAAA [XGTACX_site4338] | 7.7
TCAAATAATTTGTTGACACACACACCCACATACATA [CACACA_site8717] | 6.78
ATATTTTTTACTATTACACACAAGGGATTATTATTT [CACACA_site3915] | 6.87
TATATATATATTTTTTGTACATATTATATAATATAC [XGTACX_site5187] | 8.42
GAAAGACAAATTGTGACACACACAAAAAAAAAAAAA [CACACA_site9241] | 6.22
AAAAAAAAAAAAAAAAAAAAACACCCAAAAAAATAT [XGTACX_negctrl_site210] | 7.06
TTTTCATTTTTCTTTACACACATATATATATATATA [CACACA_site2236] | 9.23
ATATCAAATTCTGAAACACACAAAATTACACCTCTA [CACACA_site169] | 6.62
TTTTCGATATGCTTTTTTTTTCTACTGTCTTTTTAA [TGCATGCA_negctrl_site54] | 6.58
TTACTTAATAGACACACACACAAAAAAAAAAAAAAA [CACACA_site6572] | 6.41
CACATACATAAATACACACACAAAATAATAAAATAA [CACACA_site5304] | 6.69
CAAAAATATTATTATAGTACATAAATAATATATTTT [XGTACX_site6902] | 6.31
TCATTTATTGAGGAATGTACACGTAAAATTTAATAA [XGTACX_site4086] | 6.76
ATATATATTATAAAATGTACAAATGTTATATAAAAT [XGTACX_site4750] | 7.02
ATTTTTTTTTTTTTTTTCTTTTTTCTTCTTTTTTTT [CACACA_negctrl_site1223] | 5.98
TTTTTTTTTTTTTTATGTACATATATATATTTTATT [XGTACX_site6915] | 6.59
ACCTTATTTAGTTATAGTACACAAAGTATTAAACAT [XGTACX_site8418] | 7.64

Sequence | gcPBM binding intensity (ln)
TTTTTTTTTTTCTTCACACACAGTACTACTATTTAT [CACACA_site2409] | 6.56
TATATATATTTTTGTGTGCACTATAATATGAAAATA | 10.3
GCGAATAATATGGACATACACACATATACATACATA [CACACA_site2115] | 6.97
TTACATATTATACGAAGTACGTACAAATACTTATAT [XGTACX_site8598] | 6.53
TTGCATTGTCCATGCGCACACACTACTAGAATAATA [CACACA_site3678] | 7.06
TTTTTTTTTTTTTTTTTTAAACACCTCAAAAAAAAA [CACACA_negctrl_site807] | 6.18
TAAAGGAAATAAAAAACATGCAAATATGAAATATAT [TGCATGCA_site745] | 6.74
AATTATAAATTGGACACACACATAAAAAATATGTAC [CACACA_site221] | 6.4
TAAAAAAAAACATGTGCACACGTTTTATCTACATAA [CACACA_site2336] | 10.8
ATACATAATAACTCCTGTACTTAAAAATGTATATAT [XGTACX_site1071] | 6.52
AATGTATTATGTCTTCGTACACATAAATAAATAAAT [XGTACX_site4004] | 6.41
TATATAATTATTTATTGTACACTCAAATCGATAAGG [XGTACX_site3216] | 6.98
ATCTTGAAGATTATTTGTACACAAAAGTTAAAATAT [XGTACX_site242] | 6.46
GGATTAATATATTTACCACACACCCATTTCGATTTT [CACACA_site9200] | 6.68
ATATAAATATATTTTACACACAATGGAGAAAAAAAT [CACACA_site6450] | 6.6
TATTTATAAATATAAACACACAACATTCTATGCATA [CACACA_site3243] | 6.48
AACGAACACTATTACACACATACATACATATGTATG [CACACA_site1859] | 6.83
TTGTTTATTTGTAAAGCTAACAAGAAATGTGAATAT [CACACA_negctrl_site931] | 6.74
TTATTATTATAAAATTGTACTTGGTATATTAACATA [XGTACX_site5829] | 6.06
TATACATAAAAATGATGTACATATAATATATATATA [XGTACX_site3863] | 8.24
GTCAAAAGTTTTTAAGGTACACTTATTTTATTATAA [XGTACX_site7004] | 6.17
ATGTAATATATGCGGAAATATATTCACAAGACGTCA [CACACA_negctrl_site373] | 6.36

Sequence | gcPBM binding intensity (ln)
GAAAAAAAATCCAAGATGCACTATTATTACAAAAAT [GTGCAC_site9516] | 8.05
ACCTTTATTGTATGAACACACATAAGCTGATACATC [CACACA_site4028] | 7.07
CACTAAACATATACACGTACATGCAACGGATTTTTT [XGTACX_site461] | 6.76
TGGATGTTAATATAGTGTACATTTATAAGTCAGTAT [XGTACX_site2949] | 6.71
GTGGAAAAAAATAATTGTACACAATAATAAATATAT [XGTACX_site2414] | 6.71
TAGTATTGTAAAAAAAAAAAAGAAAAAAAAAAAAAA [CACACA_negctrl_site977] | 6.22
TAAATCTATATCATCACACACACATACATAAATATA [CACACA_site6228] | 6.85
AATATATGGTTCCTTGATATTAAATTCAATTTAATG [CACACA_negctrl_site71] | 6.25
TGTGTATATGTGCAAAGTACAAAAAAGAAATTATTT [XGTACX_site7569] | 9.87
AAAATATATATAACTTGTACATATACATACGTATAT [XGTACX_site4570] | 6.36
TGTATATATCAATGTACACACATGCGTATGTTCGTT [CACACA_site7654] | 6.61
TATAAAAAAAATTGCACACATATTATACAGGACGAC [CACACA_site701] | 10
TATAAAATATAATTAGCACACATATATAAAATATAT [CACACA_site9355] | 6.83
AATATATGTAATATATGTACTTAATTATATTTTAAT [XGTACX_site4382] | 6.11
TACTAATATGATATATAAATATTGTTATATAATAAT [XGTACX_negctrl_site227] | 6.17
AAAATAAAAGAAAAAAGTACAAAATCAGATTAATTA [XGTACX_site8413] | 6.27
TGAATACAAATTTACGCATGTAATTTCCAGAGGGAG [TGCATGCA_site769] | 6.42
GAATAATATGGACATACACACATATACATACATATA [CACACA_site2114] | 6.65
TTATTTCATTCTTGAAGTACGTGAAAAATGAAAACA [XGTACX_site4089] | 6.55
ACATATGAATATAATACACACTTGTATTATTAATAT [CACACA_site8546] | 6.52
TTACCTTTATTGTATGAACACACATAAGCTGATACA [CACACA_site9334] | 6.7
TATATATATACATATTGTACATGTGTATATTTTTTT [XGTACX_site361] | 7.63
